{"source": "PubChem BioAssay AID485294", "about": "(National Center for Advancing Translational Sciences (NCATS), 2010)", "note": "Screen size: about 370,000 compounds; about 150 (0.041%) were called active. Inconclusive means that the source gave no clear call. Such entries were picked first, then a sample of the others. The call rests on the fitted dose curve; in most records, active means well fitted inhibition curve with a large enough effect; inconclusive means small, poorly fitted or top-dose-only effect; inactive means flat fitted curve, though single readings scatter. Potencies of inconclusive entries are left out as doubtful fits. Potency means the concentration at half of the fitted maximal effect; tags describe the fitted curve by direction and shape.", "data": [{"target": "Beta-lactamase (Escherichia coli (strain K12)) (UniProt P00811)", "sequence (P00811 whole entry, looked up)": "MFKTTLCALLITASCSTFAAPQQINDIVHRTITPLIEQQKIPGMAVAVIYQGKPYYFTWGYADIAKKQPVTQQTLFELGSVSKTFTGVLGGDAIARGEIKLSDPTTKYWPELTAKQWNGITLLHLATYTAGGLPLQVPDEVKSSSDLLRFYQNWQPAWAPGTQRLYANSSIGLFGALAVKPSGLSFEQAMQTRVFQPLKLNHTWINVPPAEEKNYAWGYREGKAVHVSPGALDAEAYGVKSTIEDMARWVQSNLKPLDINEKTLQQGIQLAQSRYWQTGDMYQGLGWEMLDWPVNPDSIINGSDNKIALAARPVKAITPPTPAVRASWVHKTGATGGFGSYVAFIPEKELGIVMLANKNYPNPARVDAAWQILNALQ", "experiment": "qHTS Inhibitors of AmpC Beta-Lactamase (assay with detergent); further: nearly all actives have a fitted effect of over 25% in size", "conditions": "AmpC hydrolysis of nitrocefin, absorbance 480 nm, 0.01% Triton; series mostly up to 114 µM", "summary_of_the_method": "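AmpC (5.3 nM in the dispensed reagent) in 20 mM phosphate pH 7.0 with 0.01% (detergent screen) or 0.0001% Triton X-100 was preincubated with compounds for 15 min at room temperature. Nitrocefin was then added from an 800 uM solution, and hydrolysis was followed at 480 nm.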", "values": [{"compound": "C=CCN1CCN(C(=O)c2oc3ccccc3c2C)CC1", "Potency": "inactive"}, {"compound": "Cc1nnc2ccc(N3CCN(C(=O)c4ccccc4)CC3)nn12", "Potency": "inconclusive [inhibitor, full curve, poor fit]"}, {"compound": "COc1ccc(Cn2c(C3CC3)nc3ccc(NC(=O)c4cccnc4)cc3c2=O)cc1", "Potency": "inconclusive [inhibitor, full curve, poor fit]"}, {"compound": "O=C(Cc1ccccc1)Nc1ccccc1C(=O)N1CCN(c2ccccc2)CC1", "Potency": "inconclusive [inhibitor, full curve, poor fit]"}, {"compound": "CCOC(=O)COn1c(=O)c(=O)n(O)c2ccccc21", "Potency": "inconclusive [inhibitor, partial curve]"}, {"compound": "Cc1cccc(C)c1NC(=O)COc1ccc2c(C)c(Cc3ccccc3)c(=O)oc2c1", "Potency": "inconclusive [inhibitor, full curve, poor fit]"}, {"compound": "CC(=O)c1ccc(NC(=O)CSc2nnc(Cc3cccn3C)n2-c2ccc(F)cc2)cc1", "Potency": "inconclusive [inhibitor, single point]"}, {"compound": "CC(C)C[C@@H](CN=[N+]=[N-])N1CCN(CC(C)C)CCC1=O", "Potency": "inconclusive [inhibitor, partial curve, poor fit]"}, {"compound": "Cc1nn(-c2ccccc2)c(Cl)c1/C=N\\NC(=O)c1cnccn1", "Potency": "inconclusive [inhibitor, partial curve, poor fit]"}, {"compound": "Cc1cc(C(=O)Nc2ccc(Cl)cc2)on1", "Potency": "inactive"}, {"compound": "CCN(CC)CCn1c2c(c(SCC(=O)Nc3ccccc3Cl)nc1=O)CCC2", "Potency": "inconclusive [inhibitor, full curve, poor fit]"}, {"compound": "CC(=NC1CCN(Cc2ccccc2)CC1)c1c(O)n(C)c(=O)n(C)c1=O", "Potency": "inconclusive [inhibitor, partial curve]"}, {"compound": "COC(=O)c1cc(-c2c(-c3cc(OC)c(OC)c(OC)c3)noc2C)cc([N+](=O)[O-])c1", "Potency": "inconclusive [inhibitor, full curve, poor fit]"}, {"compound": "COc1ccc(C2=NN(C(C)=O)C(c3cccs3)C2)cc1OC", "note": "(stereo not given)", "Potency": "inconclusive [inhibitor, partial curve, poor fit]"}, {"compound": "O=C(CSc1nnc(CCc2nc3ccccc3[nH]2)n1-c1ccccc1)NCc1ccco1", "Potency": "inactive"}, {"compound": "COCCN(CC(=O)Nc1cccc(C)c1C)C(=O)c1ccc2c(c1)OCO2", "Potency": "inconclusive [inhibitor, partial curve, poor fit]"}, {"compound": "COc1ccc(S(=O)(=O)N2CCOCC2)cc1NC(=O)Cc1c(Cl)cccc1Cl", "Potency": "inconclusive [inhibitor, full curve, poor fit]"}, {"compound": "c1cncc(-c2nnc3sc(-c4ccco4)nn23)c1", "Potency": "inconclusive [inhibitor, full curve, poor fit]"}, {"compound": "CCc1ccc(-c2nc(NC(=O)c3ccc(OCC(=O)Nc4ccc(F)cc4)c(OC)c3)sc2C)cc1", "Potency": "inactive"}, {"compound": "CCOc1cccc(C(=O)Nc2ccc3c(c2)OCCO3)c1", "Potency": "inactive"}, {"compound": "CC(C)c1ccc2oc(-c3cc(N)ccc3O)nc2c1", "Potency": "inconclusive [inhibitor, single point]"}, {"compound": "Cc1ccc(/C=N/n2c(C)nnc2C)s1", "Potency": "inactive"}, {"compound": "O=[N+]([O-])c1ccccc1CNCCO", "Potency": "inconclusive [inhibitor, full curve]"}, {"compound": "Cc1ccc2nc(-c3ccccn3)c(Nc3ccccc3C)n2c1", "Potency": "inactive"}, {"compound": "CCOC(=O)C1CCCN(C(=O)c2cccc(S(=O)(=O)N(C)c3ccc(C)cc3)c2)C1", "note": "(stereo not given)", "Potency": "inconclusive [inhibitor, full curve, poor fit]"}, {"compound": "Cc1nnc(C)n1/N=C/c1ccccn1", "Potency": "inconclusive [inhibitor, full curve, poor fit]"}, {"compound": "COc1cccc(NC(=O)c2ccccc2N(Cc2ccccc2)S(C)(=O)=O)c1", "Potency": "inconclusive [inhibitor, full curve, poor fit]"}, {"compound": "CC(=O)N1CCN(C(=O)c2cccc(NS(=O)(=O)c3ccc(Br)cc3)c2)CC1", "Potency": "inconclusive [inhibitor, partial curve]"}, {"compound": "CCOC(=O)c1ccccc1NC(=O)Cn1cnc2c(nnn2-c2ccc(C)cc2)c1=O", "Potency": "inconclusive [inhibitor, full curve]"}, {"compound": "CSCc1ccc(C(=O)Nc2cccc(C)c2C)cc1", "Potency": "inconclusive [inhibitor, full curve, poor fit]"}, {"compound": "COC(=O)C1=C(C)NC2=C(C(=O)CCC2)C1c1cccc(C)n1", "note": "(stereo not given)", "Potency": "inconclusive [inhibitor, single point]"}, {"compound": "Cc1cc(C(=O)OCC(=O)Nc2c(F)cccc2F)c(C)n1C1CC1", "Potency": "inconclusive [inhibitor, full curve]"}, {"compound": "CCOC(=O)Cn1c(O)c(N=NC(=O)CNC(=O)Cc2ccccc2)c2ccccc21", "Potency": "inconclusive [inhibitor, full curve, poor fit]"}, {"compound": "CCN1CCCc2cc(CN(CCN3CCOCC3)C(=O)Nc3ccc(C)c(C)c3)ccc21", "Potency": "inconclusive [inhibitor, full curve, poor fit]"}, {"compound": "CN(C)CCOC(=O)c1sc2ccccc2c1Cl", "Potency": "inconclusive [inhibitor, full curve]"}, {"compound": "O=C(Nc1ccc(N2CCCC2)cc1)c1ccc([N+](=O)[O-])cc1Cl", "Potency": "inconclusive [inhibitor, partial curve]"}, {"compound": "Cc1cc(C(=O)COc2ccc(C#N)cc2)c(C)n1-c1ccc2c(c1)OCO2", "Potency": "inconclusive [inhibitor, full curve, poor fit]"}, {"compound": "Cc1ccccc1OCC(=O)Nc1ccccc1OCc1cc(=O)n2ccccc2n1", "Potency": "inactive"}, {"compound": "CCOc1cc2[nH]c(=S)n(C3CCN(Cc4ccccc4)CC3)c(=O)c2cc1OCC", "Potency": "inconclusive [inhibitor, single point]"}, {"compound": "O=C1C(Cl)=C(Nc2ccc(O)cc2)C(=O)c2ccccc21", "Potency": "inactive"}, {"compound": "COc1ccc(-n2ncc3c(NCc4ccccn4)ncnc32)cc1", "Potency": "inactive"}, {"compound": "Cc1cccc(NC(=O)c2ccc(S(=O)(=O)N3CCN(C)CC3)cc2)c1C", "Potency": "inconclusive [inhibitor, partial curve, poor fit]"}, {"compound": "COc1ccc(N(CC(=O)N2CCc3ccccc32)S(=O)(=O)c2c(C)nn(C)c2C)cc1", "Potency": "inconclusive [inhibitor, partial curve, poor fit]"}, {"compound": "COc1ccc(/C=C/C(=O)Nc2ccncc2)cc1OC", "Potency": "inconclusive [inhibitor, single point]"}, {"compound": "CCOC(=O)C1CCN(S(=O)(=O)c2ccc3[nH]c(=O)ccc3c2)CC1", "Potency": "inconclusive [inhibitor, partial curve]"}, {"compound": "O=c1[nH]c(CSc2nnc(-c3cccnc3)n2C2CCCCC2)nc2ccccc12", "Potency": "inconclusive [inhibitor, single point]"}, {"compound": "O=C(Cc1cccs1)NCc1cn2ccccc2n1", "Potency": "inconclusive [inhibitor, partial curve]"}, {"compound": "Cc1cccc(NC(=O)Nc2ccncc2)c1", "Potency": "inconclusive [inhibitor, full curve, poor fit]"}, {"compound": "O=C(COC(=O)C(O)c1ccccc1)NC12CC3CC(CC(C3)C1)C2", "note": "(stereo not given)", "Potency": "inconclusive [inhibitor, partial curve, poor fit]"}, {"compound": "CCc1cc2c(SCC(=O)C(C#N)=C3N(C)c4ccccc4N3C)ncnc2s1", "Potency": "inconclusive [inhibitor, partial curve, poor fit]"}, {"compound": "COc1cccc(-c2noc(CCCC(=O)NC3CCCC3)n2)c1", "Potency": "inconclusive [inhibitor, full curve, poor fit]"}, {"compound": "COc1cccc(CN2CCN(Cc3cc(OC)c(OC)cc3[N+](=O)[O-])CC2)c1", "Potency": "inconclusive [inhibitor, partial curve, poor fit]"}, {"compound": "CCOc1ccccc1C(=O)Nc1cccc(-c2ccc(N3CCOCC3)nn2)c1", "Potency": "inconclusive [inhibitor, partial curve, poor fit]"}, {"compound": "Cc1cccc(NC(=O)c2cc3c(=O)n(Cc4cccnc4)ccc3nc2C)c1", "Potency": "inactive"}, {"compound": "CN1C(=O)C(=Cc2ccccc2OCCOc2ccc([N+](=O)[O-])cc2)C(=O)N(C)C1=O", "Potency": "inactive"}, {"compound": "Cc1ccc2cc(CCNC(=O)c3ccco3)c(=O)[nH]c2c1", "Potency": "inconclusive [inhibitor, full curve, poor fit]"}, {"compound": "CC(NC(=O)c1ccc2c(c1)sc1nc(-c3ccc(F)cc3)cn12)C12CC3CC(CC(C3)C1)C2", "note": "(stereo not given)", "Potency": "inactive"}, {"compound": "COc1ccc(/C=N/NC(=O)C(=O)N2CCCCCC2)cc1O", "Potency": "inactive"}, {"compound": "FC(F)(F)c1cccc(Nc2c3c(nc4ccc(Cl)cc24)CCC3)c1", "Potency": "inactive"}, {"compound": "O=C(CSc1c[nH]c2ccccc12)NCC1CCCO1", "note": "(stereo not given)", "Potency": "inconclusive [inhibitor, full curve, poor fit]"}, {"compound": "Cc1ccc(NC(=O)CNC(c2ccccc2)c2ccccc2)c(F)c1", "Potency": "inactive"}, {"compound": "CCc1ccc2c(c1)C(c1ccc(N3CCOCC3)cc1)=NNC(c1ccncc1)=N2", "Potency": "inactive"}, {"compound": "COc1ccc(-c2nc(CSCC(=O)NCc3ccccc3Cl)c(C)o2)cc1OC", "Potency": "inconclusive [inhibitor, single point]"}, {"compound": "Oc1ccccc1CN(Cc1ccco1)CC(O)COCc1ccc(Cl)cc1", "note": "(stereo not given)", "Potency": "inconclusive [inhibitor, partial curve, poor fit]"}, {"compound": "CC(=O)Nc1ccc(S(=O)(=O)NC(CC(=O)NC2CCCCC2C)C(C)C)cc1", "note": "(stereo not given)", "Potency": "inactive"}]}]}
